# According to the RNAGym collection of RNA variant scans (doi:10.1093/nar/gkz1192):
# Read counts are not given, so values of variants with three or more changes are uncertain.
# B1: CPEB3 Ribozyme (parent)
# chain: UAACAGGGGGCCACAGCAGAAGCGUUCACGUCGCAGCCCCUGUCAGAUUCUGGUGAAUCUGCGAAUUCUGCUGUAUAUCUC
# Variants of: B1
# Experiment: self-cleavage, relative activity (ratio to wild type); higher = more cleavage; in vitro, sequencing
# Summary of the method: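 For each CPEB3 ribozyme variant, relative activity is its cleaved/total read fraction divided by the unmutated ribozyme's. Barcoded error-prone PCR libraries were transcribed by T7 RNA polymerase (5 hours, 37°C) and held in DNase I for 15 min before an EDTA stop, with cleavage occurring throughout. Template-switching reverse transcription and Illumina sequencing were used to read the RNAs. A 5-read minimum applied, and results are the mean of three batches.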
row,Variant,self-cleavage
1,U26C G42C A75U,0.12
2,U26G C68U U69C,0.22
3,U26C U31C A45U U49C U66A,0.16
4,U26C U43A U54C U60A A77U U78C,0.09
5,U26C U49A U67A U74C U76C,0.12
6,U26C U43A U74C,0.34
7,U26C U48C U60C,0.23
8,U26C U41G U66G G70A U80C,0.12
9,U26G A45G G52U U78C,0.17
10,U26C U41A U60A U72A,0.44
11,U26C G33U C79U,0.38
12,U26C U41A U69C U72C,0.1
13,U26G U43C U49C A65G,0.15
14,U26C U48C G55C,0.2
15,U26C U49C A65U,0.09
16,U26C U48C U49A U60A,0.14
17,U26C U41G U51A C62U U67C U74C,0.16
18,U26G U58C U76A,0.11
19,U26C U41G U80A,0.23
20,U26C U48C G61A A64U U76C,0.25
21,U26C U60C A64U U78A,0.17
22,U26C G61C U66C U80C,0.1
23,U26C U41C G46A U48G U67C,0.1
24,U26C U41A U43A U51A A57G U60C C79U,0.21

row,Variant,self-cleavage
1,U26C U41A A47G G52A U69C U80G,0.07
2,U26C U58C G63C,0.2
3,U26C U41G A45U A47G,0.19
4,U26C U41C U51A A56G,0.26
5,U26C U31A G52A U66A,0.11
6,U26C U31C C79U,0.53
7,U26C U31C U54A U80A,0.3
8,U26C U41A U48C U51A A56U G63A,0.06
9,U26C G46A A65U A77G,0.11
10,U26C U74C U80C,0.9
11,U26C U74C U80A,0.75
12,U26C U49C U80C,0.14
13,U26C U49C U80A,0.74
14,U26C U48C U80C,0.42
15,U26C U51A U60A A75U,0.54
16,U26C U31A U67C,0.23
17,U26C U48C A64U U69A,0.31
18,U26C U69C U76A,0.24
19,U26C U41C U43C U48C U60A U72A,0.1
20,U26C U58C C62U U72C U74C,0.14
21,U26C U43A A47U,0.32
22,U26C U51A A65G U76G,0.2
23,U26C U69C C81U,0.1
24,U26G U31A U80C,0.29

row,Variant,self-cleavage
1,U26C U41A A45G C50A U67A,0.2
2,U26G A28G U31C C71A,0.21
3,U26C U54A A57U,0.14
4,U26C U54A A57G,0.43
5,U26G G61C U67C,0.13
6,U26G A28G A45U,0.17
7,U26C U48C U67C,0.36
8,U26C U31G A45G U48C U60G A64G,0.19
9,U26C U49C U54C G61A A65G U72A,0.04
10,U26C U43C A47C A65G,0.29
11,U26C U31A C59U,0.37
12,U26C U49C U60C,0.14
13,U26C U31G C44A U74A U80C,0.14
14,U26C U31C A35U,0.29
15,U26C U54C U60A U78C,0.41
16,U26C G42A U43C A47G A56U,0.12
17,U26C U60C U67C A75U,0.18
18,U26C U41A U67A U78A,0.16
19,U26C U41C G52A G63C U72C,0.29
20,U26C U49C U54C A56U U74C,0.15
21,U26C U31C U67A U72C U74C,0.17
22,U26C U51A U78C,0.33
23,U26C U31A C34U A45U A75U U78C,0.22
24,U26C U31C C38U G46A U66G,0.07

row,Variant,self-cleavage
1,U26C G55A A64U A77G,0.07
2,U26C U31C G42U U49G U51C G53U U60C,0.12
3,U26C U60C G70A,0.06
4,U26C U60A U69C,0.17
5,U26C U41A U58G U67C,0.18
6,U26G U41C A45U,0.08
7,U26C G36U A64G U76C,0.16
8,U26C U43C U60C U66C U69C,0.11
9,U26C U31A A35U G70A,0.11
10,U26C G33U C40U U80C,0.1
11,U26C U69A A75U,0.21
12,U26C U31G U60C,0.07
13,U26G A35G U41G U74C,0.05
14,U26C U54A U67C,0.1
15,U26C U51C A56G U69C,0.14
16,U26C G36A G55A,0.07
17,U26C U43G U48C A77U,0.2
18,U26C U41C A77U,0.48
19,U26C U41A U67C,0.12
20,U26C U41A U48C,0.17
21,C27A A28C C37A U66C,0.13
22,U26C U43C A45U,0.36
23,U26G A64G U67A,0.07
24,U26C G33A U43C G46A,0.06

row,Variant,self-cleavage
1,U26C G55A U72A,0.29
2,U26C U58C A75G,0.17
3,U26C U72A U76C,0.2
4,U26C U51A C59A U78C,0.19
5,U26C U69A U80C,0.06
6,U26C U51G U67C A75U,0.38
7,U26C U51C U58C U67C U78C,0.1
8,U26C U48G A64G,0.15
9,U26C U43G A56U U67A,0.22
10,U26C U49A U74C,0.45
11,U26C U41G A45G U51C A65U U67A U80C,0.07
12,U26C U54C G55C U72A U80A,0.2
13,U26C U43C A47G U69A,0.39
14,U26C U31A C59U A65C,0.19
15,U26C U51A U69A U78C,0.12
16,U26C U31A U43A U54A U78C,0.15
17,U26C U69C U78C,0.28
18,U26C U69C U78A,0.23
19,U26C U54G U80C,0.19
20,U26C U58G U69C U78C,0.02
21,U26C U58G U69A U72G,0.16
22,U26C U43A U67C U76C,0.05
23,U26C U49C U58C A65G,0.22
24,U26C G55U C62U,0.16

row,Variant,self-cleavage
1,U26G A35U U43C A47G,0.32
2,U26C U60A U67C,0.13
3,U26G U41C U69A,0.15
4,U26G A56G A64G U80C,0.16
5,U26C U49C A56G G70A,0.16
6,U26C U41C U78C,0.28
7,U26C U48C U67A U74C,0.24
8,U26C U54C C62A A65G,0.33
9,U26C U51C U67C,0.11
10,U26C U51C U67A,0.39
11,U26G U48A A75U,0.2
12,U26C U60A C79U,0.35
13,U26C U60A U80C,0.53
14,U26G U31A U54C A75G U78C,0.23
15,U26G G33U U80C,0.5
16,U26C U51C A64G,0.34
17,C27A A28U C32U A45C A56G U58C A77G,0.07
18,U26C G55A C59U U72A,0.07
19,U26C U51A A57G C59A U60C U72C U78C,0.06
20,U26C U41A U48C A77G,0.4
21,U26G A56U A64U,0.11
22,U26C U41G U69C,0.15
23,U26C U43C U60A U66A U76C,0.15
24,U26G A45G U54A A56G U72C,0.05

row,Variant,self-cleavage
1,U26C U41C G42C A57G U58C,0.16
2,U26C U58C A77U,0.47
3,U26G A56U U78A,0.18
4,U26C U51C G52C U54C U72A,0.17
5,U26C G33U U66C G73A U78A,0.1
6,U26C U43C U80C,0.57
7,U26C U41C G46U U49C,0.19
8,U26C U31C U48G A56U,0.08
9,U26C G36C U51C U69C A77U,0.14
10,U26C U69C A77G,0.26
11,U26G U31C U41C U60C A64G,0.19
12,U26C U58C G61A,0.07
13,U26C G53C A56U U67A,0.09
14,U26C U43C U51C G53U A65G,0.22
15,U26C G55U A56G,0.38
16,U26C U31C U41A C62A,0.17
17,U26C U31C U49C A56G U72A U76C U80A,0.26
18,U26C U43A A57G U72C,0.4
19,U26C U41A U51G A57G,0.34
20,U26G A28U U31A U60C A64G U67A,0
21,U26C U31C U58C,0.36
22,C27A A28G A56G U80C,0.09
23,U26C G42C G73A C79U U80G,0.29
